Hit rate of the full screen: of about 310,000 compounds, about 14,000 (4.5%) showed an effect of 50% or more. The effect is printed as a negative number. The list shows a part of the results.
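Also: peak tail current of the secondary pulse compared with the same well before compound.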

Sequence of human ether-à-go-go-related gene (hERG) potassium channel (Q12809 whole entry, looked up): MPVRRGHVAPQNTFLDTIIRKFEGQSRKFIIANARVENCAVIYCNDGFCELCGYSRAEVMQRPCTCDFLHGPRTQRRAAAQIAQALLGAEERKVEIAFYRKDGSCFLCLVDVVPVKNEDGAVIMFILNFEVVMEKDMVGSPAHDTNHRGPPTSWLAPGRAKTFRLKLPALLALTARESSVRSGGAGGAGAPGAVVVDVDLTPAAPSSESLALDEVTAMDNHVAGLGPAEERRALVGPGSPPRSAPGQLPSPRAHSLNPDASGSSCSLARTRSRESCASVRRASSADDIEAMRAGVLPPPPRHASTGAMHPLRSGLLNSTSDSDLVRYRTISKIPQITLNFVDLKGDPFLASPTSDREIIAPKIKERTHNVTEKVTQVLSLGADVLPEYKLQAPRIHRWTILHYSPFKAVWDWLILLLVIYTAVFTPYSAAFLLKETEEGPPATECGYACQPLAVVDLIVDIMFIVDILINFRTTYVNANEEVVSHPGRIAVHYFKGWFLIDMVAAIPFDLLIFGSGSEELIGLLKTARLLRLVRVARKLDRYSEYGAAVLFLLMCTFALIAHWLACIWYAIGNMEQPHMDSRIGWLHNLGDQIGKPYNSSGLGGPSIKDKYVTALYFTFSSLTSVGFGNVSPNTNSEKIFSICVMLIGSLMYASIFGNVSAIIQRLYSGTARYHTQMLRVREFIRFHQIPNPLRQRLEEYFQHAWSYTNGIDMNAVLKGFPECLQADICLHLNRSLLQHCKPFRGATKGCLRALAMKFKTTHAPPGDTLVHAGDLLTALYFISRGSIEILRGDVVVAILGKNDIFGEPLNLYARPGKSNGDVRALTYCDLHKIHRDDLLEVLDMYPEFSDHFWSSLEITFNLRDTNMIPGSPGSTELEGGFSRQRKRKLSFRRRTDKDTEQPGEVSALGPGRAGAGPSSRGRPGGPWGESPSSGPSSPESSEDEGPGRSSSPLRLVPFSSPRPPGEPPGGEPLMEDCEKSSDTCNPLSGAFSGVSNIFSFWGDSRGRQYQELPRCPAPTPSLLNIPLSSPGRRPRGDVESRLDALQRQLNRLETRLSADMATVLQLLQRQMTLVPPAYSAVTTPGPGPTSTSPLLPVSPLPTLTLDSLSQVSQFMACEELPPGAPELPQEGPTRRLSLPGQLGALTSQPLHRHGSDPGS

This assay concerns the target human ether-à-go-go-related gene (hERG) potassium channel (human, UniProt Q12809). The assay can be described thus: primary screen, population patch clamp on CHO cells stably expressing hERG.
As for `CC(=O)c1cc2c(cc1NC(=O)C1CC1)OCO2`, the “hERG current change (%, negative = inhibition) at 10uM” value turned out to be 6.77%.

Consider `CCOC(=O)n1c(=O)n(Cc2ccccc2Cl)c2ccccc21`, for which the “hERG current change (%, negative = inhibition) at 10uM” value is reported as -5.87%.

For `CCSc1n[nH]c(=O)[nH]c1=O`, the “hERG current change (%, negative = inhibition) at 10uM” value worked out at 4.31%.

Take `CC(C)NC(=O)[C@H]1N2C(=O)c3ccccc3C2SC1(C)C` (stereo partly drawn): the “hERG current change (%, negative = inhibition) at 10uM” value stood at 16.8%.

In the case of `CC(C)N(C(=O)CSc1nnc(CN2CCCCCC2=O)n1-c1ccccn1)C(C)C`, the “hERG current change (%, negative = inhibition) at 10uM” value is recorded as 0.287%.

`CN(C)c1ccc(NC(=O)CN2CCN(c3ccc(F)cc3)CC2)cc1`: the “hERG current change (%, negative = inhibition) at 10uM” value is on record as -4.56%.

In the case of `CCOC(=O)c1sc(Nc2nc3cc4c(cc3s2)OCO4)cc1C`, the “hERG current change (%, negative = inhibition) at 10uM” value was 13%.

`O=C1C2CCCCN2C(=O)N1CCCCN1CCN(c2cccc(Br)c2)CC1` (stereo not drawn): the “hERG current change (%, negative = inhibition) at 10uM” value is given as -61.4%.

Regarding `CC(=O)c1c(N2CCCCC2)nc(=S)n(Cc2ccccc2)c1C`, the “hERG current change (%, negative = inhibition) at 10uM” value is given as -17.3%.

For `Cn1c(SCc2ccc([N+](=O)[O-])cc2)nnc1-c1cccnc1`, the “hERG current change (%, negative = inhibition) at 10uM” value is given as -18%.

Take `CC(=O)c1ncnn1CC(=O)c1ccc(Cl)cc1Cl`: the “hERG current change (%, negative = inhibition) at 10uM” value was 10.9%.

With `O=C(CSc1nc2cc(Cl)ccc2s1)NC(=O)NCc1ccco1`, the “hERG current change (%, negative = inhibition) at 10uM” value is on record as -1.55%.

On to `CCN(c1ccccc1)S(=O)(=O)c1nnc(NC(=O)c2ccco2)s1`, for which the “hERG current change (%, negative = inhibition) at 10uM” value was 4.3%.

As for `COc1ccc(S(=O)(=O)NCC(c2cccnc2)N2CCN(c3ccccc3)CC2)cc1C` (stereo not drawn), the “hERG current change (%, negative = inhibition) at 10uM” value is -79.2%.

As to `COc1ccc(CNC(=O)CN(Cc2ccc(Cl)cc2)S(=O)(=O)c2ccccc2)cc1`, the “hERG current change (%, negative = inhibition) at 10uM” value is on record as -12.5%.

As for `Cc1cc(C)n(CC(=O)NCc2ccccc2)c(=O)c1C#N`, the “hERG current change (%, negative = inhibition) at 10uM” value was 21.6%.

With `Cc1ccc2c(c1)[C@@H]1CN(C)CC[C@@H]1N2C(=O)Nc1cccc(C(F)(F)F)c1`, the “hERG current change (%, negative = inhibition) at 10uM” value is on record as -38.5%.

Regarding `CC1CCN(CCNC(=O)c2ccc3c(=O)n(Cc4ccc(Cl)cc4)c(=S)[nH]c3c2)CC1`, the “hERG current change (%, negative = inhibition) at 10uM” value is listed as -15.8%.

With `Cc1cccc(C(=O)NC(=S)Nc2ccccc2C(F)(F)F)c1`, the “hERG current change (%, negative = inhibition) at 10uM” value is -10.9%.

Take `COCCn1c(SCC(=O)Nc2ccc(NC(C)=O)cc2)nc2c([nH]c3ccccc32)c1=O`: the “hERG current change (%, negative = inhibition) at 10uM” value turned out to be 18.9%.

In the case of `Cc1c(C(=O)NCc2ccccn2)sc2nc(-c3ccc(F)cc3)cn12`, the “hERG current change (%, negative = inhibition) at 10uM” value is -10.2%.

For `COc1ccc(-c2cc(=O)oc3cc(OC(=O)C4CCCCC4)c(Cl)cc23)cc1`, the “hERG current change (%, negative = inhibition) at 10uM” value was 11.2%.

With `COc1ccc(S(=O)(=O)N(C)C)cc1NC(=O)CSc1nnc(-c2cccnc2)o1`, the “hERG current change (%, negative = inhibition) at 10uM” value was found to be 26.2%.

Regarding `CCc1c(C)n([O-])c2c([n+]1=O)CCCCC2`, the “hERG current change (%, negative = inhibition) at 10uM” value worked out at 1.54%.

Take `CCOc1ccccc1NC(=O)CCC(=O)Nc1nnc(C2CCCCC2)s1`: the “hERG current change (%, negative = inhibition) at 10uM” value came to 18.8%.

In the case of `CS(=O)(=O)c1sc(C(=O)NC(=O)Nc2cccc(C(F)(F)F)c2)c2c1C=CCC2`, the “hERG current change (%, negative = inhibition) at 10uM” value is -11.6%.

Take `CC(C)(C)C(=O)Nc1ccccc1-c1nc2ccccc2[nH]c1=O`: the “hERG current change (%, negative = inhibition) at 10uM” value is recorded as 13.7%.

On to `CCOc1ccc(OCCC(=O)OCC(=O)NC(C)c2ccccc2)cc1` (stereo not drawn), for which the “hERG current change (%, negative = inhibition) at 10uM” value was found to be 14.9%.

`COC(=O)C1=C(CSc2nnnn2C)NC(=O)NC1c1cc(C)ccc1C` (stereo not drawn): the “hERG current change (%, negative = inhibition) at 10uM” value is -2.11%.

As to `CCC(C)NC(=O)CSc1nnc(-c2ccc(OC)c(OC)c2)c(-c2ccc(OC)c(OC)c2)n1` (stereo not drawn), the “hERG current change (%, negative = inhibition) at 10uM” value is listed as 12.4%.

For the compound `COc1cc(/C=C(\C#N)c2nc3ccccc3n2C)cc(OC)c1O`, the “hERG current change (%, negative = inhibition) at 10uM” value is on record as -28.3%.

Consider `Cc1c(Cl)cccc1Nc1nc(N)nc(CSc2nc3ccccc3s2)n1`, for which the “hERG current change (%, negative = inhibition) at 10uM” value worked out at 0.584%.

Take `Cc1ccc(/C=C/c2nc3ccccc3c(=O)n2CCc2ccccc2)cc1`: the “hERG current change (%, negative = inhibition) at 10uM” value was 13.1%.

On to `Cc1nc(SCc2ccccc2)c2oc3ccccc3c2n1`, for which the “hERG current change (%, negative = inhibition) at 10uM” value came to 12.2%.

On to `COCCCNC(=O)CCn1c(=O)c2ccccc2n(CC(=O)Nc2ccc(C)cc2C)c1=O`, for which the “hERG current change (%, negative = inhibition) at 10uM” value was determined as 17%.

With `COc1ccc(N2CCN(CCNC(=O)CCN3C(=O)COc4ccccc43)CC2)cc1`, the “hERG current change (%, negative = inhibition) at 10uM” value is reported as -47%.

For the compound `CCN(CC)Cc1csc2ccc(Br)cc12.Cl`, the “hERG current change (%, negative = inhibition) at 10uM” value is reported as -41%.

For the compound `O=C(Cn1cnc2ccccc21)OCC(=O)N1CCc2ccccc2C1`, the “hERG current change (%, negative = inhibition) at 10uM” value is listed as -4.25%.

For the compound `CC(Oc1ccc(C(=O)c2ccccc2)cc1)C(=O)Nc1ccc(S(N)(=O)=O)cc1` (stereo not drawn), the “hERG current change (%, negative = inhibition) at 10uM” value is -23.1%.

For the compound `Cc1cc(C(=O)NNC(=O)c2cccc(N(C)C)c2)c(C)o1`, the “hERG current change (%, negative = inhibition) at 10uM” value is recorded as -0.4%.

Regarding `CC1(NC(=S)NCCO)CCS(=O)(=O)C1` (stereo not drawn), the “hERG current change (%, negative = inhibition) at 10uM” value is recorded as 9.03%.

For `O=C(COc1ccc(Cl)cc1Cl)OCC(=O)N1CCCc2ccccc21`, the “hERG current change (%, negative = inhibition) at 10uM” value is recorded as -0.227%.

In the case of `COc1ccc2c(CC(=O)Nc3nc(C)cs3)coc2c1`, the “hERG current change (%, negative = inhibition) at 10uM” value was -8.96%.

Take `CCNc1nc(NCC)nc(NC(N)=S)n1`: the “hERG current change (%, negative = inhibition) at 10uM” value was 21.4%.

As for `COc1ccc(/C=C/C(=O)OCC(=O)Nc2ccc(Cl)c(S(=O)(=O)N(C)C)c2)cc1OC`, the “hERG current change (%, negative = inhibition) at 10uM” value is recorded as 2.74%.

`CCOC(=O)N/N=C1\CCS(=O)(=O)c2ccc(Cl)cc21`: the “hERG current change (%, negative = inhibition) at 10uM” value is given as -7.4%.

On to `Cc1nn(Cc2ccccc2)c(C)c1NC(=O)CCC(=O)O`, for which the “hERG current change (%, negative = inhibition) at 10uM” value is reported as 2.81%.

In the case of `Nc1nc(SCC(=O)Nc2cccnc2Cl)n[nH]1`, the “hERG current change (%, negative = inhibition) at 10uM” value is recorded as 7.22%.

Turning to `CC(C)(C)NC(=O)COC(=O)c1cc(Cl)ccc1[N+](=O)[O-]`, the “hERG current change (%, negative = inhibition) at 10uM” value came out at 13%.

As for `CC(=O)N1N=C(c2cccc(Cl)c2)OC1c1cccc([N+](=O)[O-])c1` (stereo not drawn), the “hERG current change (%, negative = inhibition) at 10uM” value is reported as -8.93%.

With `Cc1ccc(OCCCOc2cccc3cccnc23)cc1C`, the “hERG current change (%, negative = inhibition) at 10uM” value amounted to 4.71%.

Consider `COc1ccccc1N1CCN(Cc2ccc(O)c3ncccc23)CC1`, for which the “hERG current change (%, negative = inhibition) at 10uM” value is on record as -27.1%.

For `C=C(Cl)COc1ccc2c(CCCC)cc(=O)oc2c1`, the “hERG current change (%, negative = inhibition) at 10uM” value is recorded as -24.9%.

Consider `CCNC(=S)N1CCN(C(c2ccccc2)c2ccccc2)CC1`, for which the “hERG current change (%, negative = inhibition) at 10uM” value is on record as 2.6%.

As to `COc1ccccc1CNC(=O)c1cc2c(C)nn(Cc3ccc(F)cc3)c2s1`, the “hERG current change (%, negative = inhibition) at 10uM” value was 0.106%.

Regarding `CC(C)Sc1ccccc1C(=O)Nc1ccc2c(c1)n(C)c(=O)n2C`, the “hERG current change (%, negative = inhibition) at 10uM” value is on record as 12.2%.

With `COCCNC(=O)CN(c1cccc(OC)c1)S(=O)(=O)c1ccc(C)cc1`, the “hERG current change (%, negative = inhibition) at 10uM” value is given as -12.2%.

Values taken from article PMC4336329 (PLoS ONE, 2015).
